The supplement of paper PMC3334620
The full ranking holds about 33,000 sequences; the median of “E-score (-0.5 to 0.5)” is about -0.056, and the highest 2% start at about 0.38. The list shows a part of the results.

These sequences were tested against Stb4 (UniProt P50104) (assay: PBM E-score (8-mer binding enrichment) (E-score (-0.5 to 0.5)); higher = stronger / more preferred TF binding; most listed sequences are background and not binding sites). Conditions: protein concentration: 200 nM; construct: GST-DNA-binding domain.
In short: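 Universal all-10-mer Agilent arrays, double-stranded by primer extension on fresh or once-stripped slides, were probed with about 100-200 nM GST-tagged yeast transcription factors made by PURExpress. Fluorescent anti-GST detected bound protein, and masliner normalised the scans. E-scores from the Universal PBM Analysis Suite were given to each ungapped eight-base word pooled with its reverse complement.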

| Sequence | PBM E-score |
| --- | --- |
| ATTAGTGC | 0.106 |
| GCTGGCAA | -0.0422 |
| AATAGGGA | -0.00618 |
| CACAGCGG | -0.0365 |
| GAACAATA | 0.108 |
| CCATGCCC | 0.0964 |
| CCTGGATC | -0.228 |
| ATCTTCTC | 0.0752 |
| CTGCGCAG | -0.123 |
| CTCACGCA | -0.057 |
| CGAACCTA | 0.167 |
| ACTTGTTA | -0.0394 |
| ACCCGCAA | 0.153 |
| ATTATAAC | 0.0597 |
| CTGGGCCA | -0.209 |
| CCTGCCCG | 0.0763 |
| AGAATGTG | -0.341 |
| GTGAGATA | -0.0558 |
| CCACGAAG | -0.337 |
| ATCCGAGC | 0.478 |
| CTTTACCA | -0.245 |
| CCGTGCCG | 0.302 |

| Sequence | PBM E-score |
| --- | --- |
| AGACTAAA | -0.0468 |
| CACGCCAG | -0.0642 |
| CGTACAAA | -0.0595 |
| CAGAAGAG | -0.331 |
| ACTATCTA | -0.175 |
| ATTCCGTG | 0.363 |
| AAATTTGT | 0.0181 |
| GAGAAGAC | -0.161 |
| AGGAAGAT | -0.0288 |
| CCGTCGCG | 0.14 |
| GGTGTTTA | 0.0577 |
| CAGCCTCG | 0.076 |
| GAGCAAGA | -0.0683 |
| CCGAGAGG | 0.38 |
| GTTCGGGA | 0.453 |
| TGGTTTAA | -0.219 |
| ATCTCGTG | -0.114 |
| ATTCCCCC | 0.0951 |
| ATCACTCC | 0.0118 |
| CACGCCCC | 0.0645 |
| ATACGCAG | -0.262 |
| GTGCAGTA | 0.112 |

| Sequence | PBM E-score |
| --- | --- |
| GAGCTGGA | -0.0262 |
| GCCAACAC | 0.212 |
| CAATCTTC | 0.0234 |
| ACGCTTCT | -0.115 |
| CCCGTACA | 0.00392 |
| GATAGCTA | 0.0444 |
| CGACTGAC | -0.101 |
| CAAATATC | 0.16 |
| GTACCAGA | -0.259 |
| CCGCGCAA | 0.0559 |
| CGATTCGA | 0.00951 |
| ACACTAGT | -0.248 |
| AATGCCCC | -0.117 |
| AATTGGGA | 0.0291 |
| AACCTGTG | -0.123 |
| TAACGCTA | -0.0688 |
| ATGGCTTG | -0.155 |
| ATTTACTG | -0.142 |
| AACAATGT | -0.0925 |
| AGATAGCG | -0.113 |
| AACGACCG | -0.0706 |
| AGTAAATA | 0.0993 |

| Sequence | PBM E-score |
| --- | --- |
| ATCTCTGC | -0.0871 |
| CGACGCTC | -0.00583 |
| GTTTGCAA | -0.113 |
| AGGTTGTC | -0.176 |
| CTGGGCCC | -0.157 |
| CCTAGTCG | -0.11 |
| CTACGAGC | -0.133 |
| ACGCTGTC | -0.0299 |
| AAGGCCTC | -0.176 |
| ATATTTTC | 0.0943 |
| ACTCAAGA | -0.137 |
| CTGCACAC | -0.221 |
| GACCGCCA | -0.0552 |
| AACTTGGG | 0.0814 |
| CGTGAGTA | -0.122 |
| AAGCTCGC | -0.0388 |
| CACCACCC | 0.101 |
| CAACCGCA | 0.0396 |
| ATGATCTC | -0.159 |
| CGTACTTA | -0.219 |
